Laboratory results as given in patent US5792444A, “Labeled chemotactic peptides to image focal sites of infection or inflammation” (The General Hospital Corporation, priority 1993, dated 1998).
pEC50, pIC50: −log10 of the molar value. Like-named read-outs stand apart in the source and are kept apart here. For some of these results: Not every detail of the peptide structures is certain; ends, links or a residue may be inferred. For some of these results: At least one structure is not confirmed: it was looked up by name or label, or the drawing left a doubt. *1 amine or outer side, *2 acyl side, *3 side chain or, on linkers, in order; H or OH if unused. Where a SMILES comes first, the peptide text is derived from it. [ ]: non-standard residue; d: D form. The star is where a group is joined. DTPA = O=C(O)CN(CCN(CC(=O)O)CC(=O)O)CCN(CC(=O)O)CC(=O)*; Isobutyloxycarbonyl = CC(C)COC(=O)*; Cha = N[C@@H](CC1CCCCC1)C(=O)O; HYNIC = NNc1ccc(C(=O)*)cn1; Nle = CCCC[C@H](N)C(=O)O; Boc = CC(C)(C)OC(=O)*; CO = O=C([*:1])[*:2]; NHiPr = CC(C)N*; NHBu = CCCCN*; For = O=C*

Assays:
[1] = system: neutrophils / human umbilical vein endothelial cells; assay: Adhesion agonist (neutrophil-endothelial cell adhesion assay); format: cell-based
Method: (§1) The unconjugated peptide iBoc-MLFK was evaluated in a neutrophil-endothelial cell adhesion assay. In this assay, neutrophils (5×10^5) labeled with 5-carboxyfluorescein diacetate were added into wells of a 48 well dish containing confluent human umbilical vein endothelial cells. The iBoc-MLFK peptide was added at a concentration of 10 μM 10 min prior to stimulation of neutrophils with 30 nM ForMLF. Percent adhesion was determined by washing off unattached neutrophils after an incubation period of 25 minutes. This peptide inhibited adhesion by 66% at this concentration. Subsequently, concentrations between 0.1-3.0 μM were examined. […] Inhibition of adhesion would reduce the infiltration of leukocytes, such as neutrophils, to a diseased site, thereby limiting the tissue damage associated with inflammation.
(§2) The procedure of Example 5 was repeated for additional CP's within the scope of the present invention. The results are shown in Table I. In the table, MPO is myeloperoxidase assay, a "-" sign means there was no effect at 30 μM, a "+" sign means there was a positive effect at 30 μM, and "N.T." means "Not

[2] = system: neutrophils / human umbilical vein endothelial cells; format: cell-based; details: for pIC50: read-out: Adhesion Antagonist IC50; for antagonism of adhesion of activated neutrophils to vascular endothelial cells: in vitro
Method: as §1, §2

rabbit neutrophils = assay: Superoxide production by rabbit neutrophils; format: cell-based
E. coli infection [3] = format: in vivo, rabbit; details: 111In labeled
[4] = target: T1, chemoattractant receptor on human PMN's (Homo sapiens, UniProt P21462); assay: For-MLF receptor binding assay (For-ML[3H]F displacement)
T1 construct: endogenous in cells; host or cells: isolated human PMN's (neutrophils) from healthy volunteers, intact cells
T1 sequence (P21462 1-350): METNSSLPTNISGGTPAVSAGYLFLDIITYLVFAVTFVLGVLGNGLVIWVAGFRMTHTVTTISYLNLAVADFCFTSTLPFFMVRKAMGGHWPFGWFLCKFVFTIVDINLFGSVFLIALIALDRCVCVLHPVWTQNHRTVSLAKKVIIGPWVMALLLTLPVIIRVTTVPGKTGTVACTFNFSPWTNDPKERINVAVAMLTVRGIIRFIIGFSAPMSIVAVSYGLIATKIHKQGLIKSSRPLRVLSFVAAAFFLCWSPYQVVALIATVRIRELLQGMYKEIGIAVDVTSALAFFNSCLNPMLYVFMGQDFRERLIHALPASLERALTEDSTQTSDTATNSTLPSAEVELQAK
Method: Following incubation, the cells were filtered onto glass fiber discs (Whatman GF/C; Whatman, Inc., Clifton, N.J.) which were then washed with 20 mL of ice cold incubation buffer. The filters were placed in scintillation vials with 10 mL of Safety-Solve (Research Products International Corp., Mt. Prospect, Ill.) and radioactivity was measured by liquid scintillation spectroscopy. Specific binding is defined as total binding minus nonspecific binding. Nonspecific binding is the amount of residual bound radioactivity in the presence of 10 μM unlabeled For-MLF.
The chemical purity of the final product was evaluated by TLC, HPLC, UV spectroscopy, mass spectroscopy, and amino acid analysis. Determinations of the EC50 's for binding to the chemoattractant receptor on human PMN's and superoxide generation were performed as described in Pike, M. C., and Snyderman, R., Methods Enzymol. 162:236-245 (1988); Pike, M. C., et al., Blood 67:909-913 (1986); and Fischman, A. J., et al., J. Nucl. Med. 32:483-491 (1991).

E. coli infection [5] = assay: Example 1: imaging of experimental bacterial infection in rats, 111In label; format: in vivo, Sprague-Dawley rats; details: 111In labeled
[6] = Example 1: biological activity (EC50) of peptide and DTPA derivative
Excerpt: The chemotactic peptide N-formyl-Nle-Leu-Phe-Nle-Tyr-Lys was synthesized using standard solid phase methods well-known in the art (Merrifield, R. B., J. Am. Chem. Soc. […]:2149-2154 (1963); Stewart, J. M., and Young, J. D., Solid Phase Peptide Synthesis, W. H. Freeman & Company, San Francisco, Calif. (1969)). The epsilon amino group of the C-terminal lysine was modified with DTPA using a cyclic anhydride. […] The peptide was readily radiolabeled with ^111 In.

neutrophils = target: T2, neutrophils (Homo sapiens, UniProt P21462); assay: Chemoattraction of human neutrophils; format: cell-based
T2 sequence (P21462 1-350): T1 sequence (P21462 1-350)
Method: In another preferred embodiment of the present invention, Y is 4-aminotetrahydropyran-4-carboxylic acid (Thp). […] The peptide that was prepared and tested was formyl-Thp-Leu-Phe-OMe.
The peptide that was prepared and tested was formyl-Met-Dpg-Phe--OH

SMILES | pEC50 ([1]; class symbol) | pIC50 [2] | other results
COC(=O)N[C@@H](CCSC)C(=O)N[C@@H](CC(C)C)C(=O)N[C@@H](Cc1ccccc1)C(=O)OC [Example 51, MeOCO--MLF--COOMe] | > 4.52 | 5.12 | –
CSCC[C@H](NC(=O)NC(C)C)C(=O)N[C@@H](CC(C)C)C(=O)N[C@@H](Cc1ccccc1)C(=O)N[C@@H](CCCCN)C(=O)O [Example 73, i-propylurea-MLF--Lys] ({NHiPr-CO}-MLFK-OH) | < 4.52 | < 4.52 | –
COC(=O)[C@H](Cc1ccccc1)NC(=O)[C@H](CC(C)C)NC(=O)[C@H](CCSC)NC(=O)OCC(C)C [Example 53, iBoc--MLF--COOMe] | < 4.52 | 5.15 | –
CCNC(=O)N[C@@H](CCSC)C(=O)N[C@@H](CC(C)C)C(=O)N[C@@H](Cc1ccccc1)C(=O)O [Example 64, N-ethylurea-MLF] | < 4.52 | 5.60 | –
CSCC[C@H](NC(=O)NC(C)C)C(=O)N[C@@H](CC(C)C)C(=O)N[C@@H](Cc1ccccc1)C(=O)N[C@@H](CCCCNC(=O)c1ccc(NN)nc1)C(=O)O [Example 28, i-propylurea-MLF--Lys--SHNH] ({NHiPr-CO}-MLFK(HYNIC)-OH) | – | < 4.52 | pEC50 [1]: 5.82
CC(C)C[C@H](NC(=O)[C@H](CC[S+](C)[O-])NC(=O)C(C)C)C(=O)N[C@@H](Cc1ccccc1)C(=O)O (stereo partly shown) [Example 83, ibutyrylamide-M(s=o)LF] | < 4.52 | < 4.00 | –
COC(=O)/C(=C/c1ccccc1)NC(=O)[C@H](CC(C)C)NC(=O)[C@H](CCSC)NC=O [formyl-Met-Leu-z-Phe-OMe] | – | – | superoxide production (rabbit neutrophils): stimulated superoxide production
CSCC[C@H](NC(=O)OCC(C)C)C(=O)N[C@@H](CC(C)C)C(=O)N[C@@H](Cc1ccccc1)C(=O)N[C@@H](CCCCNC(=O)CN(CCN(CCN(CC(=O)O)CC(=O)O)CC(=O)O)CC(=O)O)C(=O)O [Example 42, isobutyloxycarbonyl-methionyl-leucyl-phenylalanyl-N-diethylenetriaminepentacetyl-lysine] (Isobutyloxycarbonyl-MLFK(DTPA)-OH) | < 4.52 | – | antagonism of adhesion of activated neutrophils to vascular endothelial cells [2]: antagonize; time after injection at which focal infection site was detectable (E. coli infection [3]): 10 min; time course of target to background ratio (E. coli infection [3]): 1 h
CSCC[C@H](NC(=O)NC12CC3CC(CC(C3)C1)C2)C(=O)N[C@@H](CC(C)C)C(=O)N[C@@H](Cc1ccccc1)C(=O)O [Example 7, N-adamantylurea-MLF] | < 4.52 | 6.17 | –
CSCC[C@H](NC=O)C(=O)N[C@@H](CC(C)C)C(=O)N[C@@H](Cc1ccccc1)C(=O)N[C@@H](CCCCNC(=O)c1ccc(NN)nc1)C(=O)O [HP2, For-MLFK-HYNIC] (For-MLFK(HYNIC)-OH) | – | – | pEC50 ([4]; Example 101, read-out: EC50 binding to the chemoattractant receptor on human PMN's): 8.70; pEC50 ([4]; read-out: EC50 Binding Affinity (50% inhibition of For-ML[3H]F binding), 15 nM For-ML[3H]F, 45 min, 24° C.): 9.74
CCCCNC(=O)N[C@@H](Cc1ccccc1)C(=O)N[C@@H](CC(C)C)C(=O)N[C@@H](Cc1ccccc1)C(=O)N[C@@H](CC(C)C)C(=O)N[C@@H](Cc1ccccc1)C(=O)O [Example 69, N-butylurea-FLFLF] ({NHBu-CO}-FLFLF-OH) | < 4.52 | 5.66 | –
CSCC[C@H](NC(=O)OCC(C)C)C(=O)N[C@@H](CC(C)C)C(=O)N[C@@H](Cc1ccccc1)C(=O)N[C@@H](CCCCN)C(N)=O [Example 41, iBoc--MLFK] (Isobutyloxycarbonyl-MLFK-NH2) | < 4.52 | 4.80 | inhibition of adhesion ([2]; 10 μM peptide, 30 nM ForMLF): 66%; antagonism of adhesion of activated neutrophils to vascular endothelial cells [2]: antagonize
CCCC[C@H](NC=O)C(=O)N[C@@H](CC(C)C)C(=O)N[C@@H](Cc1ccccc1)C(=O)N[C@@H](CCCC)C(=O)N[C@@H](Cc1ccc(O)cc1)C(=O)N[C@@H](CCCCNC(=O)CN(CCN(CCN(CC(=O)O)CC(=O)O)CC(=O)O)CC(=O)O)C(=O)O [ForNleLFNleYK-DTPA, formyl-norleucyl-leucyl-phenylalanyl-norleucyl-tyrosyl-lysine-DTPA] (For-[Nle]LF[Nle]YK(DTPA)-OH) | – | – | time after injection at which focal infection site was detectable (E. coli infection [3]): 10 min; time course of target to background ratio (E. coli infection [3]): improved over 5 hours; time course of target to background ratio (E. coli infection [3]; listed as For-NleLFNleYK-DTPA): improving target to background ratio over 5 hours; time of peak accumulation at the site of infection (E. coli infection [5]): 1 h; target-to-background ratio at peak accumulation (E. coli infection [5]; gamma camera, 1 hour): about 4.0; pEC50 [6]: ~9.00
CCCCOC(=O)N[C@@H](CCSC)C(=O)N[C@@H](CC(C)C)C(=O)N[C@@H](Cc1ccccc1)C(=O)OC [Example 52, nBoc--MLF--COOMe] | > 4.52 | 5.35 | –
CCCCNC(=S)N[C@@H](CCSC)C(=O)N[C@@H](CC(C)C)C(=O)N[C@@H](Cc1ccccc1)C(=O)O [Example 68, N--N-butylthiourea-MLF] | < 4.52 | 5.36 | –
CC(C)C[C@H](NC(=O)[C@H](Cc1ccccc1)NC(=O)NC(C)C)C(=O)N[C@@H](Cc1ccccc1)C(=O)N[C@@H](CC(C)C)C(=O)N[C@@H](Cc1ccccc1)C(=O)N[C@@H](CCCCNC(=O)c1ccc(NN)nc1)C(=O)O [Example 33, i-propylurea-FLFLF--Lys--SHNH] ({NHiPr-CO}-FLFLFK(HYNIC)-OH) | < 4.52 | 5.11 | –
CSCC[C@H](NC(=O)NC(C)C)C(=O)N[C@@H](CC(C)C)C(=O)N[C@@H](CC1CCCCC1)C(=O)O [Example 24, N--N-Isopropylurea-M--L-Hexahydro-F] ({NHiPr-CO}-Met-Leu-[Cha]-OH) | < 4.52 | 5.43 | –
CSCC[C@H](NS(=O)(=O)c1ccccc1)C(=O)N[C@@H](CC(C)C)C(=O)N[C@@H](Cc1ccccc1)C(=O)O [Example 82, benzene-sulfonamidyl-MLF] | < 4.52 | 5.07 | –
CCCC(CCC)(NC(=O)[C@H](CCSC)NC=O)C(=O)N[C@@H](Cc1ccccc1)C(=O)O [formyl-Met-Dpg-Phe--OH] | – | – | chemoattractant activity (neutrophils): chemoattractant agent to human neutrophils
CCCCS(=O)(=O)N[C@@H](CCSC)C(=O)N[C@@H](CC(C)C)C(=O)N[C@@H](Cc1ccccc1)C(=O)O [Example 81, n-butyl-sulfonamidyl-MLF] | < 4.52 | 5.74 | –
CC(C)C[C@@H](NC(=O)[C@H](Cc1ccccc1)NC(=O)[C@@H](CC(C)C)NC(=O)[C@H](Cc1ccccc1)NC(=O)OC(C)(C)C)C(=O)N[C@@H](Cc1ccccc1)C(=O)O [Example 58, tBoc--F(D)LF(D)LF] (Boc-F[dL]F[dL]F-OH) | < 4.52 | 5.89 | –
CSCC[C@H](NC(=O)C(C)C)C(=O)N[C@@H](CC(C)C)C(=O)N[C@@H](Cc1ccccc1)C(=O)O [Example 84, ibutyrylamide-MLF] | < 4.52 | 5.21 | –
CSCC[C@H](NC(=O)NS(=O)(=O)c1ccc(C)cc1)C(=O)N[C@@H](CC(C)C)C(=O)N[C@@H](Cc1ccccc1)C(=O)O [Example 6, N(N-tosylurea)-MLF] | < 4.52 | 5.51 | –
